Laboratory results as given in PubChem BioAssay AID463254 (National Center for Advancing Translational Sciences (NCATS), 2010).
Hit rate of the full screen: of about 330,000 compounds, about 40 (0.01%) were called active. The inconclusive results got no clear call from the source; some entries with a clear call stand among them for comparison. Calls follow the shape of the dose curve; as a rule, active = well fitted inhibition curve with a large enough effect; inconclusive = small, poorly fitted or top-dose-only effect, or effect the other way; inactive = flat fitted curve, though single readings scatter. Potencies beside an inconclusive call are fits to weak or partial responses and may not hold up.

Target: Ubiquitin carboxyl-terminal hydrolase 2 (Homo sapiens) (UniProt O75604)
Assay: qHTS Assay for Inhibitors of Ubiquitin-specific Protease USP2a Using CHOP2 as the Reporter;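 as to activity change, negative = inhibition: plate controls were DMSO wells for no effect and full inhibition by NEM control for full effect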
Conditions: USP2 core, Ub-CHOP2 coupled fluorogenic reporter, 485/531; activity change, negative = inhibition: at 38.3 µM (top of the series)
Outline: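 Deubiquitinase activity read as fluorescence (485/531 nm) after Ub-CHOP2 cleavage activates the enterokinase reporter on its substrate; USP2 core 10nM, Ub-CHOP2 and substrate 25nM each, 30min compound preincubation then 60min RT; data normalized to NEM, curves fitted.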
Potency is read from the fitted curve at half-maximal effect; tags tell the direction and shape of the fitted curve or compound fluorescence and quenching.

Chain of UniProt O75604 (O75604 whole entry, looked up): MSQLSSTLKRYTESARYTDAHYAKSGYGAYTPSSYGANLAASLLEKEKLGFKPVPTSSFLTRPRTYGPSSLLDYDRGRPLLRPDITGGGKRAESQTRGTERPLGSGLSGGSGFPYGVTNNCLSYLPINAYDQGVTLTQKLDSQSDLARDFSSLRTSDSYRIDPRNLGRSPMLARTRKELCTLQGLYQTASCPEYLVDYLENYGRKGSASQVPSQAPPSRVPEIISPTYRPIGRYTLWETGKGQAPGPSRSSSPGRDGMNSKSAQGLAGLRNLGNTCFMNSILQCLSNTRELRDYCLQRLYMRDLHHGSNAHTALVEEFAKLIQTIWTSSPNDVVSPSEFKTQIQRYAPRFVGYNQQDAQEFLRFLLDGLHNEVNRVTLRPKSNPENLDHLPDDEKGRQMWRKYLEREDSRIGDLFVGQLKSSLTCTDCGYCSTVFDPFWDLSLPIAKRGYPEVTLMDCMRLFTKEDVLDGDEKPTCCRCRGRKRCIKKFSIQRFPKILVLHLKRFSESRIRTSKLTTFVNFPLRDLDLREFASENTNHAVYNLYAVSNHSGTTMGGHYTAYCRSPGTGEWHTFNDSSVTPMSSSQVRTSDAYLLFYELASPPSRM

Structure (SMILES) | Potency | activity change, negative = inhibition
CC(C)(C)C1CCC2(CC1)Nc1cccc3cccc(c13)N2 | inconclusive: 28.2 µM [falling, single point] | –
CCN1CCN(Cc2c(O)ccc3c2O/C(=C\C=C\c2ccccc2)C3=O)CC1 | inconclusive: 12.6 µM [fluorescent, partial curve] | –
O=C(Nc1nnc(-c2cccs2)o1)c1cccc(Oc2ccccc2)c1 | inconclusive: 5.01 µM [falling, single point] | –
Cc1ccc(NS(=O)(=O)c2cccc(C(=O)OCC(=O)NCc3ccco3)c2)cc1 | inconclusive: 5.01 µM [falling, single point] | –
Cc1ccc(C(=O)NCCCc2ccccc2)s1 | inconclusive: 28.2 µM [falling, single point] | –
CCCCN(CCCC)C(=O)c1cc(Cl)ccc1[N+](=O)[O-] | – | inactive: -0.0843%
COc1ccc(C(=O)Nc2ccc(N3CCCC3)cc2)cc1OC | inconclusive: 22.4 µM [falling, single point] | –
COCc1cc(C)nc(SCC[N+](C)(C)CC(=O)Nc2cccc(C(F)(F)F)c2)c1C#N | inconclusive: 11.2 µM [falling, single point] | –
CCOC(=O)N1CCC(NC(=O)c2ccc(OC)c(CN3CC(=O)N4CCCC4C3=O)c2)CC1 (configuration not stated) | inconclusive: 5.01 µM [falling, single point] | –
O=C(CNC(=O)C1CCCCC1)NC1=NCCS1 | inconclusive: 28.2 µM [falling, single point] | –
CCOC(=O)C1CCCN(C(=O)c2cc(-c3ccco3)nc3ccccc23)C1 (configuration not stated) | inconclusive: 28.2 µM [falling, single point] | –
COCCN1CC(=O)N(c2cccc(C)c2C)C(c2ccc(Cl)cc2)C1=O (configuration not stated) | – | inactive: -1.09%
C[C@H](CO)N1C[C@H](C)[C@@H](CN(C)S(=O)(=O)c2cn(C)cn2)Oc2ccc(NC(=O)Cn3cnnn3)cc2C1=O | inconclusive: 3.16 µM [falling, single point] | –
CC1=NC(C(F)(F)F)(C(F)(F)F)C2=C(CC(C)(C)CC2=O)N1Cc1ccco1 | inconclusive: 28.2 µM [falling, single point] | –
Cc1ccc(C23CC4CC(CC(CN)(C4)C2)C3)cc1 | – | inactive: 0.0842%
Cc1cc(C)c2nc(N3C(=O)C(O)=C(C(=O)c4ccco4)C3c3ccco3)sc2c1 (configuration not stated) | – | inactive: -11.2%
N/C(=N\OC(=O)c1ccco1)c1ccccc1 | – | inactive: 0.132%
Cc1cc(NS(=O)(=O)c2ccc(Nc3nc(-c4ccc(C)c(C)c4)cs3)cc2)no1 | inconclusive: 14.1 µM [falling, single point] | –
N#CC(c1ccccc1)c1ccc(C(=O)c2ccc(F)cc2)cc1 (configuration not stated) | inconclusive: 5.01 µM [falling, single point] | –
COc1cccc(NC(=S)Nc2ccc(O)cc2)c1 | – | inactive: 4.3%
O=C(c1ccccc1)N1CCN(C(=O)N2CCCCC2)CC1 | inconclusive: 3.16 µM [falling, single point] | –
CCSc1nc(N2CCCCC2)c2c(c1C#N)CCCC2 | inconclusive: 20 µM [falling, single point] | –
O=C(NCc1cccc(F)c1)c1cccc2c1C(=O)c1ccc(N3CCC(Cc4ccccc4)CC3)cc1S2(=O)=O | inconclusive: 10 µM [fluorescent, partial curve] | –
O=C(Nc1ccccn1)NC1CCS(=O)(=O)C1 (configuration not stated) | – | inactive: 1.85%

Structure (SMILES) | Potency | activity change, negative = inhibition
O=C1c2cccc3c(O)ccc(c23)C(=O)N1Cc1ccco1 | inconclusive: 11.2 µM [fluorescent, partial curve] | –
N#C/C(=C\c1ccc(N2CCOCC2)o1)c1nc2ccccc2[nH]1 | inconclusive: 11.2 µM [fluorescent, partial curve] | –
CCN1CCN(C2=CC3=CC(=C(C#N)C#N)CCC3CC2)CC1 (configuration not stated) | inconclusive: 10 µM [fluorescent, partial curve] | –
COc1ccc(/C=C2\SC(=O)N(CCC(=O)Nc3ccc(S(=O)(=O)Nc4nccs4)cc3)C2=O)cc1 | inconclusive: 28.2 µM [falling, single point] | –
Cc1ccc(NC(=O)COC(=O)Cc2csc(-c3cccc(F)c3)n2)cc1C | – | inactive: -0.746%
COc1ccc(Cl)cc1C(=O)Nc1cccc(-c2ccc3nncn3n2)c1 | inconclusive: 11.2 µM [falling, partial curve] | –
CCN(CC)S(=O)(=O)c1ccc(C(=O)OCC(=O)NCc2ccco2)cc1 | – | inactive: 0.27%
O=C(Nc1nc2cc3c(cc2s1)OCCO3)C1=COCCO1 | – | inactive: 1.43%
Cc1nc(NC(C)C)c2cnn(CCc3ccccc3)c2n1 | inconclusive: 20 µM [falling, single point] | –
COc1ccc(/C=N/NC(=O)c2nn(-c3ccccc3)c(=O)c3c(N)scc23)cc1 | inconclusive: 20 µM [falling, single point] | –
CC(/C=C\c1cccnc1)=C/C(=O)O | inactive | –
O=C(Nc1nnc(SCC(=O)N2CCCC2)s1)C1CC(=O)N(c2ccc(F)cc2)C1 (configuration not stated) | inconclusive: 28.2 µM [falling, single point] | –
CCOC(=O)N1CCN(CC(=O)n2c(C)c(C)c3ccccc32)CC1 | inconclusive: 28.2 µM [falling, single point] | –
NC(=O)c1c(NC(=O)CSc2nnc(-c3ccco3)n2-c2ccccc2)sc2c1CCC2 | inconclusive: 12.6 µM [falling, single point] | –
CCc1ccc(NC(=O)CN(N=Nc2nonc2C)c2nonc2C)cc1 | inconclusive: 11.2 µM [fluorescent, partial curve] | –
O=c1[nH]c2ccccc2nc1/C=C(\O)c1cccs1 | inconclusive: 10 µM [fluorescent, partial curve] | –
CCCn1nnnc1NC(=O)c1cc(Cl)ccc1Cl | – | inactive: 4.19%
COc1ccc(OC)c(S(=O)(=O)Nc2ccc(-c3ccc4nncn4n3)cc2)c1 | – | inactive: 4.25%
Cc1nc2n(n1)CC(O)CS2 (configuration not stated) | inconclusive: 22.4 µM [falling, single point] | –
O=C1CCCC2=C1C(c1ccc(Br)cc1)c1c([nH]c(=S)[nH]c1=O)N2 (configuration not stated) | – | inactive: 0.163%
Cc1cc(N2CCC(C(=O)NC3CC3)CC2)nc(-c2ccccc2)n1 | inconclusive: 5.01 µM [falling, single point] | –
COc1ccc(N2Cc3ccc(C(=O)N/N=C\c4ccc(O)cc4O)cc3C2)cc1 | inconclusive: 28.2 µM [falling, single point] | –
Cc1ccc(-n2nnnc2C(=Cc2ccc(N(C)C)cc2)c2nnnn2-c2ccc(C)cc2)cc1 | – | inactive: 17.5%
COc1ccc(NC(=O)c2cc(-c3ccco3)nc3ccccc23)cc1S(=O)(=O)N1CCOCC1 | inconclusive: 28.2 µM [falling, single point] | –

Structure (SMILES) | Potency | activity change, negative = inhibition
COc1ccc(N2C(S)=C(C#N)C(=O)NC2c2ccco2)cc1 (configuration not stated) | – | inactive: -0.532%
COc1ccccc1-c1cc(C(F)(F)F)c(C#N)c(=O)[nH]1 | – | inactive: -1.09%
CCN(CC)C1=CC2=CC(=C(C#N)C#N)CCC2CC1 (configuration not stated) | inconclusive: 2 µM [fluorescent, partial curve, poor fit] | –
O=C1NCC(CN(c2ccccc2)c2ccccc2)O1 (configuration not stated) | inconclusive: 22.4 µM [falling, single point] | –
Nc1ccc(CNc2ncn[nH]2)cc1 | – | inactive: 0.134%
O=C(NCC(c1cccnc1)N1CCN(c2ccc(F)cc2)CC1)OCc1ccccc1 (configuration not stated) | inconclusive: 28.2 µM [falling, single point] | –
Cc1cc(NCCO)c2ccccc2n1 | – | inactive: 0.603%
CC1=C(C(=O)O)N2C(=O)C(NC(=O)c3nn(C)cc3Cl)C2SC1 (configuration not stated) | – | inactive: -0.387%
CC1CCC(NC(=O)CCS(=O)(=O)c2ccc3c(c2)NC(=O)CS3)CC1 (configuration not stated) | – | inactive: 1.38%
CCOc1ccc(Cn2c(=O)sc3ccccc32)cc1OC | inconclusive: 28.2 µM [falling, single point] | –
CN1CCN(C(=O)CCCN2C(=O)/C(=C/c3ccccc3)SC2=S)CC1 | – | inactive: 1.03%
O=C(CSCCO)Nc1cccc2ccccc12 | inconclusive: 28.2 µM [falling, single point] | –
COCc1c(C(=O)OCC(=O)c2c(N)n(CC(C)C)c(=O)n(C)c2=O)oc2ccccc12 | inconclusive: 14.1 µM [falling, single point] | –
Cn1cccc1CC(=O)N/N=C/C=C/c1ccco1 | inconclusive: 14.1 µM [falling, single point] | –
CCOC(=O)/C(C#N)=C\C=C1C=CN(C)C=C1 | inconclusive: 11.2 µM [fluorescent, single point] | –
CCC1c2ccc(C)n2CCN1C(=O)Nc1ccccc1C(=O)OC (configuration not stated) | inconclusive: 12.6 µM [fluorescent, single point] | –
Cc1ccc(-c2nc(C=Nc3ccc(O)cc3)c(O)o2)cc1 | inconclusive: 28.2 µM [fluorescent, single point] | –
C#CCOCCOCCOCCNc1nc(N2CCN(C(=O)CCCCCCCCCCNC(=O)[C@H]([C@@H](C)CC)n3cc(CCCCN=C(N)N)nn3)CC2)nc(N2CCN(C(=O)CCCCCCCCCCNC(=O)[C@H](CCCCN)n3cc(C)nn3)CC2)n1 | inconclusive: 10 µM [falling, single point] | –
O=c1[nH]c2ccccc2c(O)c1O | – | inactive: 1.86%
CCOc1cc(N2CCOCC2)c(OCC)cc1NC(=O)Cc1cn2ccsc2n1 | inconclusive: 28.2 µM [falling, single point] | –
O=C(C[n+]1cccc2ccccc21)c1ccccc1 | – | inactive: 2.23%
CC1(C)NC(=O)N(CC(O)COc2ccccc2C(=O)N2CCCCC2)C1=O (configuration not stated) | – | inactive: 3.35%
CN(C)/N=C/c1ccc(Sc2ccccc2[N+](=O)[O-])o1 | – | inactive: -1.93%
O=C(NCCO)Nc1ccc2nc(-c3ccco3)c(-c3ccco3)nc2c1 | inconclusive: 5.01 µM [falling, single point] | –
